The other results are listed elsewhere or left out. Most values come without repeats; read them as rough.
Each compound was assayed on MZ2-MEL (assay: cell count relative to DMSO control; melanoma cells; higher = more viable cells). Details: library dose: low library concentration; 72 h.
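Note: cell number obtained by counting DAPI-stained nuclei in high-throughput microscope images with image analysis software, screen run in 1,536-well plates.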

Structure (SMILES) | cell count
COCC[n+]1c2c(n(Cc3cnccn3)c1C)C(=O)c1ccccc1C2=O + COc1ccc2c(c1)CCC1C2CCC2(C)C(NCCCCCCN3C(=O)C=CC3=O)CCC12 [U73122] (first compound 0.0004 µM, partner dose 0.4 µM) | 77.6%
Nc1cccc2c1CN(C1CCC(=O)NC1=O)C2=O (stereo unspecified) [lenalidomide] + CCCCCCCCCCCC1=C(O)C(=O)C=C(O)C1=O [Embelin] (first compound 1 µM, partner dose 1.2 µM) | 105%
O=C(CCCCCCC(=O)Nc1ccccc1)NO [vorinostat] + c1cc(-c2cnn3cc(-c4ccc(OCCN5CCCCC5)cc4)cnc23)ccn1 [Dorsomorphin] (first compound 0.08 µM, partner dose 0.4 µM) | 95.5%

What follows are compounds tested on MeWo in the same assay as above. Details: library dose: low library concentration; 72 h.

Structure (SMILES) | cell count
Cn1c(Nc2ccc(C(F)(F)F)cc2)nc2cc(Oc3ccnc(-c4ncc(C(F)(F)F)[nH]4)c3)ccc21 + CCCCCCCCCCCC1=C(O)C(=O)C=C(O)C1=O [Embelin] (first compound 0.08 µM, partner dose 1.2 µM) | 78.9%
O=C(CCCCCCC(=O)Nc1ccccc1)NO [vorinostat] + O=C(O)C(=O)Nc1sc2c(c1C(=O)O)CCNC2 [TCS401] (first compound 0.08 µM, partner dose 1.66667 µM) | 103%
O=C(CCCCCCC(=O)Nc1ccccc1)NO [vorinostat] + CCc1ccc(CCOc2ccc(CC3SC(=O)NC3=O)cc2)nc1 [pioglitazone] (first compound 0.08 µM, partner dose 2 µM) | 93%
C#Cc1cccc(Nc2ncnc3cc(OCCOC)c(OCCOC)cc23)c1 [erlotinib] + O=C(Nc1ccccc1)c1cc([N+](=O)[O-])ccc1Cl [GW9662] (first compound 0.8 µM, partner dose 2 µM) | 84.7%
C#Cc1cccc(Nc2ncnc3cc(OCCOC)c(OCCOC)cc23)c1 [erlotinib] + Oc1nc(-c2ccc(C(F)(F)F)cc2)nc2c1CSCC2 [XAV939] (first compound 0.8 µM, partner dose 2 µM) | 91.5%
COCC[n+]1c2c(n(Cc3cnccn3)c1C)C(=O)c1ccccc1C2=O + CCc1ccc(CCOc2ccc(CC3SC(=O)NC3=O)cc2)nc1 [pioglitazone] (first compound 0.0004 µM, partner dose 2 µM) | 97.4%
Cn1c(Nc2ccc(C(F)(F)F)cc2)nc2cc(Oc3ccnc(-c4ncc(C(F)(F)F)[nH]4)c3)ccc21 + N#Cc1c(O)c2c(-c3ccc(-c4ccccc4O)cc3)csc2[nH]c1=O [A769662] (first compound 0.08 µM, partner dose 2 µM) | 64%
O=C(CCCCCCC(=O)Nc1ccccc1)NO [vorinostat] + COc1ccc(-c2ccc3c(N4CCOCC4)nc(N4C[C@@H](C)O[C@@H](C)C4)nc3n2)cc1CO [KU0063794] (first compound 0.08 µM, partner dose 0.02 µM) | 89.7%
C#Cc1cccc(Nc2ncnc3cc(OCCOC)c(OCCOC)cc23)c1 [erlotinib] + N#Cc1c(O)c2c(-c3ccc(-c4ccccc4O)cc3)csc2[nH]c1=O [A769662] (first compound 0.8 µM, partner dose 2 µM) | 93.4%
COCC[n+]1c2c(n(Cc3cnccn3)c1C)C(=O)c1ccccc1C2=O + COC(=O)c1sccc1S(=O)(=O)Nc1ccc(Nc2ccccc2)cc1OC [GSK0660] (first compound 0.0004 µM, partner dose 1 µM) | 77.8%
COCC[n+]1c2c(n(Cc3cnccn3)c1C)C(=O)c1ccccc1C2=O + Cn1cc(/C=C2\C(=O)Nc3cccnc32)c2ccccc21 [GW441756] (first compound 0.0004 µM, partner dose 0.4 µM) | 97.3%
Cn1c(Nc2ccc(C(F)(F)F)cc2)nc2cc(Oc3ccnc(-c4ncc(C(F)(F)F)[nH]4)c3)ccc21 + CCc1ccc(CCOc2ccc(CC3SC(=O)NC3=O)cc2)nc1 [pioglitazone] (first compound 0.08 µM, partner dose 2 µM) | 71.8%
COCC[n+]1c2c(n(Cc3cnccn3)c1C)C(=O)c1ccccc1C2=O + CC(C)CCN1c2nc(Nc3cc(F)c(O)c(F)c3)ncc2N(C)C(=O)C1C [BID1870] (first compound 0.0004 µM, partner dose 0.2 µM) | 82.8%

Source: the supplement of paper PMC4604168 (melanoma cell lines)
